Experimental data taken from the supplement of paper PMC7826260.
Some of the results follow. Cleavage of a single-stranded DNA pool by Rep nickase domains was read by sequencing (1 h at 37 °C, 3 µM enzyme); the outer parts of the 90-letter strands are left off. A value is the log2 ratio of uncut reads to the pool without enzyme; uncut sequences lie near 0, cut ones below; no hit call is given. The scaling is to total reads, so uncut sequences can rise above 0 when many others are cut.

test system: T1, Rep nickase domain of chickpea chlorotic dwarf virus; test: uncleaved DNA left, log2 of reads against the no-enzyme library (log2 ratio); higher = less cleavage (more negative = more Rep cleavage of the k-mer); sequences stand for … in CTCGTCCG…ACCGGAGA
T1 sequence (protein, residues 1-124, tag omitted): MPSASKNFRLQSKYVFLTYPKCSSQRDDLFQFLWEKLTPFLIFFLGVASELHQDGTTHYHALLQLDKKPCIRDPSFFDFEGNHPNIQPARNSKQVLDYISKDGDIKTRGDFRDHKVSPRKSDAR
Protocol: (§1)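 A pool of 90-nt single-stranded DNAs with seven random bases just before the constant AC of the nick site (name = the seven bases) was cut by 3 µM recombinant His6-SUMO-tagged Rep nickase domain (300 nM DNA, 50 mM HEPES pH 8.0, 50 mM NaCl, 1 mM MnCl2, 1 h, 37 °C, three replicates). Uncut DNA was amplified and sequenced.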

Sequence	uncleaved DNA left (log2)
TCATCTG	0.187
ACCGTCG	0.921
CCTGAAC	0.0598
CATGAGA	-0.498
GGTAATT	1.49
GACTGGT	0.482
ATACCTA	-0.958
CACATAA	-0.654
ACCCGGT	0.33
ATCCAAC	-1.26
GCAAACT	-2.25
TGGATCC	0.954
CGGCAGG	0.668
AGGTGAG	-0.248
CGGCAAA	0.457
TGGCGAG	0.316
GTTGCCG	-0.239
CCTCCCA	-1.12
TACCTCC	-1.23
TGTGACG	-0.406

Sequence	uncleaved DNA left (log2)
TGGACTC	1.83
GATCCCA	-0.0555
GACTATG	-0.107
ACCCTTG	-1.04
GGGGTAC	1.65
CTCATAT	-0.977
ATCAATT	-2.28
ATCGATT	-1.4
TCTCAAG	-0.9
TGCTCAC	0.342
GGACATT	1.95
AGGCATT	1.77
CGCGGTA	-0.529
AGGCTCG	-0.625
AGAAAAT	0.202
GCAGCTA	-0.311
GCCATCT	-1.2
AGAGATC	0.663
CACACAC	-0.393
TGTCCAT	0.232

test system: T2, Rep nickase domain of faba bean necrotic yellows virus; test: as above
T2 sequence (protein, residues 1-98, tag omitted): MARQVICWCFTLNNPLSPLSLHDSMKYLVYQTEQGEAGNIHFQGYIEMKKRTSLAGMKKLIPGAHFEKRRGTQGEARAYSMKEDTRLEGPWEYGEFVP
Protocol: as §1

Sequence	uncleaved DNA left (log2)
TCATCTG	-0.0866
ACCGTCG	0.184
CCTGAAC	0.015
CATGAGA	0.245
GGTAATT	-0.145
GACTGGT	-0.0055
ATACCTA	0.0964
CACATAA	0.0453
ACCCGGT	0.0246
ATCCAAC	0.0262
GCAAACT	-0.0217
TGGATCC	0.0922
CGGCAGG	0.137
AGGTGAG	-0.0776
CGGCAAA	-0.121
TGGCGAG	-0.133
GTTGCCG	-0.0623
CCTCCCA	-0.206
TACCTCC	0.00633
TGTGACG	-0.158

Sequence	uncleaved DNA left (log2)
TGGACTC	-0.129
GATCCCA	-0.079
GACTATG	-0.104
ACCCTTG	-0.0623
GGGGTAC	0.0792
CTCATAT	-0.0908
ATCAATT	-0.0209
ATCGATT	0.107
TCTCAAG	0.131
TGCTCAC	-0.0948
GGACATT	-0.0217
AGGCATT	0.0261
CGCGGTA	-0.114
AGGCTCG	-0.0606
AGAAAAT	-0.00789
GCAGCTA	-0.052
GCCATCT	-0.118
AGAGATC	0.164
CACACAC	-0.0539
TGTCCAT	0.00829

test system: T3, Rep nickase domain of maize striate mosaic virus; test: as above
T3 sequence (protein, residues 1-117, tag omitted): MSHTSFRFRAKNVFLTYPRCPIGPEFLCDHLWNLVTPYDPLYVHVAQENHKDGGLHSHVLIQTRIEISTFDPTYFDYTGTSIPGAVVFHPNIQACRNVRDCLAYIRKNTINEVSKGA
Protocol: as §1

Sequence	uncleaved DNA left (log2)
TCATCTG	0.138
ACCGTCG	0.226
CCTGAAC	-0.0538
CATGAGA	-1.03
GGTAATT	2.01
GACTGGT	1.03
ATACCTA	-0.229
CACATAA	-0.981
ACCCGGT	0.0308
ATCCAAC	-0.829
GCAAACT	-0.395
TGGATCC	0.943
CGGCAGG	0.701
AGGTGAG	-0.705
CGGCAAA	0.258
TGGCGAG	-0.246
GTTGCCG	-0.914
CCTCCCA	-0.432
TACCTCC	0.543
TGTGACG	-0.718

Sequence	uncleaved DNA left (log2)
TGGACTC	2.19
GATCCCA	0.917
GACTATG	-0.586
ACCCTTG	-1.09
GGGGTAC	2.21
CTCATAT	-0.531
ATCAATT	-0.45
ATCGATT	-0.0444
TCTCAAG	-1.27
TGCTCAC	0.687
GGACATT	2.27
AGGCATT	2.1
CGCGGTA	-0.575
AGGCTCG	-0.846
AGAAAAT	0.0535
GCAGCTA	-0.18
GCCATCT	-0.454
AGAGATC	0.78
CACACAC	-0.651
TGTCCAT	0.625
